Test [1] concerns the target DNAJA2 (UniProt O60884 1-412). The test is described as follows: NMR titration.
The target of test [2] is T1, full-length DNAJB1 (UniProt P25685 1-340). The experiment in a line: NMR titration.
The target of test [3] is T1, full-length DNAJB1. The test is described as follows: NMR titration. This is another data set of the same source.
Test [4] addresses DNAJB1 (residues 154-341) (UniProt P25685 in part). The test is described as follows: NMR titration.
In test [5] the target is T1, full-length DNAJB1. The test is described as follows: co-sedimentation.
The target in test [6] is DNAJB1 G194C-AF488 (UniProt P25685 1-340, G194C, AF488 on G194C). The experiment in a line: fluorescence polarisation. Background: In fluorescence polarisation assays a small probe gives low polarisation when free and higher when bound to something large.
Test [7] deals with DNAJA2-AF488 (UniProt O60884 1-412, AF488 (site not stated)). The test is described as follows: fluorescence polarisation.

B1: tau^4R P301S mutant (domain or fragment)
chain: not shown
As to B1, the binding result in test [1] and in test [2] was “binds” throughout.

B2: tau^4R ([…], C322A), monomeric (domain or fragment)
chain: not shown
Take B2: the binding result in test [3] and in test [4] was “binds” throughout.

B3: tau^4R P301L mutant (domain or fragment)
chain: not shown
As to B3, the binding result in test [1] and in test [2] was “binds” each time.

B4: preformed tau^4R fibrils (other)
chain: not shown
Regarding B4, the binding result in test [5] is “binds”. Besides, the figures for the Kd in test [6] and in test [7] were 1.7 µM and 7.6 µM, respectively.

Broadly, the Kd is the concentration at which binding is half-saturated. Low values mean higher affinity, high ones lower affinity.

The values are drawn from paper doi:10.1101/2021.04.11.439324 (bioRxiv, 2021).
